Source: PubChem BioAssay AID463173 (ICCB-Longwood Screening Facility, Harvard Medical School, 2010)
The whole screen tested about 52,000 compounds, of which about 4,300 (8.3%) were called active. Cut-off read from the data, not from the text of the source: active = survival mostly below about 52% (no sharp cut-off); inactive = mostly above about 56%. The list shows a part of the results.

Each compound was assayed on DeltatarO mutant (assay: S. aureus survival, RN4220 and DeltatarO strains – OD600, teichoic acid synthesis inhibitors, primary screen (AID 463173)). Conditions: S. aureus RN4220 wild type/DeltatarO growth, OD600, 18 h, stronger effect = lower value, screened at 18.75 µg/mL (by protocol).

Compound | survival
CCC(C(=O)Nc1cc(OC)cc(OC)c1)n1nc(-c2ccc(C)c(C)c2)ccc1=O (stereo unspecified) | inactive: 75%
Cc1nc2scc(C)n2c(=O)c1S(=O)(=O)Nc1ccc(N2CCOCC2)c(Cl)c1 | inactive: 80%
CCOc1ccc(-c2nc(CSCC(=O)N3CCN(c4ccc(F)cc4)CC3)c(C)o2)cc1 | inactive: 89%
CCOc1ccc(C(=O)NCCn2cc(SCC(=O)Nc3ccc4c(c3)OCCO4)c3ccccc32)cc1 | inactive: 80%
CN1CCc2c(sc3c2C(=O)NC(c2ccc(OC(=O)c4ccc(C(C)(C)C)cc4)cc2)N3)C1 (stereo unspecified) | inactive: 50%
Cc1ccc(S(=O)(=O)Nc2cc3c(cc2NCc2ccccc2)n(C)c(=O)n3C)c(C)c1 | inactive: 60%
O=C(CCc1nc(CN2CCN(S(=O)(=O)c3ccc(Cl)cc3)CC2)no1)N1CCCCC1 | inactive: 113%
Cc1cccc(Cn2c(SCc3ccc(C(=O)NCCc4ccccc4)cc3)nc3ccncc32)c1 | inactive: 81%
CCc1cccc(C)c1NC(=O)Cn1ccn(-c2cccc(OC)c2)c(=O)c1=O | inactive: 72%
COc1ccc(-c2cc3nc(C)c(CCC(=O)Nc4ccccc4C(C)=O)c(C)n3n2)c(OC)c1 | inactive: 91%
COc1ccc(-n2c(=O)c3c(c4cc(OC)ccc4n3C)n(Cc3cccc(OC)c3)c2=O)cc1 | inactive: 91%
O=C(CCC1N=C2c3ccccc3N=C(SCc3ccc(F)cc3)N2C1=O)NCc1ccc(F)cc1 (stereo unspecified) | inactive: 75%
Fc1cccc(-n2ncc3c2ncn2nc(COc4ccc(Cl)cc4)nc32)c1 | inactive: 111%
CCCC1=Nc2cc(C(=O)NCc3ccc(OC)cc3)ccc2Sc2ccc(C)cc21 | inactive: 70%
COc1ccc(C(C(=O)NC2CCCC2)N(Cc2ccc(C)cc2)C(=O)c2ccn[nH]2)cc1OC (stereo unspecified) | inactive: 104%
CCN1CCN(CC(=O)NC23CC4CC(CC(C4)C2)C3)CC1 | inactive: 80%
O=C(CSCc1cccc(F)c1)NCc1ccccc1 | inactive: 78%
Cc1ccc(N2CCN(C(=O)c3c(C)oc4ncn(CC(C)C)c(=O)c34)CC2)c(C)c1 | inactive: 88%
CCC(C)NC(=O)c1cc(-c2cccc(OC)c2)on1 (stereo unspecified) | active: 32%
Cc1ccc(C)c(N2CCN(C(=O)C3CCN(c4nc5ccc(C)cc5[nH]4)CC3)CC2)c1 | inactive: 94%
Cc1cccc(NC(=O)CSc2ncc3c(n2)-c2ccccc2N(Cc2ccc(F)cc2)S3(=O)=O)c1C | inactive: 68%
Cc1cc(-c2ccc(C)c(S(=O)(=O)N3CCN(c4cccc(C(F)(F)F)c4)CC3)c2)on1 | inactive: 86%

Compound | survival
Cc1cccc(CCNC(=O)c2ccc3c(c2)N(Cc2ccccc2F)C(=O)c2ccccc2S3)c1 | inactive: 83%
Cc1ccc(Oc2c(C(F)(F)F)oc3c(CN4CCC(C)CC4)c(O)ccc3c2=O)cc1 | inactive: 79%
CCc1cccc(NC(=O)CCC(=O)N2CCSc3ccccc32)c1 | inactive: 57%
CN(C)c1ccc(-c2nc(-c3cc4cc(Cl)ccc4oc3=O)cs2)cc1 | inactive: 89%
COc1cc(NC(=O)Cn2c(=O)n(Cc3ccco3)c(=O)c3sc4ccccc4c32)cc(OC)c1 | inactive: 79%
COCCCNc1oc(/C=C/c2cc(OC)c(OC)c(OC)c2)nc1C#N | inactive: 75%
Cc1ccccc1OCC(=O)OC1CCCN(C)C1 (stereo unspecified) | inactive: 90%
CC(/C=N/NC(=O)Cc1cccn1C)=C\c1ccco1 | inactive: 100%
O=C(CSc1nnc(-c2cccs2)o1)Oc1ccccc1 | inactive: 69%
COc1ccccc1NC(=O)NC1(C(=O)N2CCCCC2)CCCCC1 | inactive: 85%
CCc1ccc(C(=O)c2cn(CC(=O)Nc3cc(C)ccc3C)c3nc(C)ccc3c2=O)cc1 | inactive: 97%
CCN(CC)C(=O)c1c(-c2ccccc2)c(-c2ccccc2)nn(C)c1=O | inactive: 48%
CCOc1ccc(C(=O)Nc2ccc3nc(SCCOc4ccccc4)sc3c2)cc1 | inactive: 97%
CCc1ccc(-n2cnc3cc(C(=O)NCc4ccc(C)cc4)ccc32)cc1 | inactive: 57%
CCOC(=O)c1c(C)[nH]c(CCC(=O)NCc2ccc(CC)cc2)c1C | inactive: 96%
CC(=O)c1cccc(NC(=O)Cn2nc(C)n3cccc3c2=O)c1 | inactive: 104%
O=C(CSc1nnc(-c2ccccc2)o1)c1cccc([N+](=O)[O-])c1 | inactive: 135%
CCN(CC)CCCNC(=O)c1ccc(-c2nc(CN3CCc4ccccc43)c(C)o2)cc1 | inactive: 65%
O=C(Cn1ncc2c3ccccc3n(Cc3ccc(Cl)cc3)c2c1=O)NCc1ccccn1 | inactive: 93%
NC(=O)c1ccccc1NC(=O)c1ccc(-c2ccc(Br)cc2)o1 | inactive: 77%
COC(=O)c1cc(S(=O)(=O)N2CCN(c3cccc(C)c3)C(C)C2)cn1C (stereo unspecified) | inactive: 92%
O=C(NCCN1CCOCC1)c1ccncc1 | inactive: 96%

Compound | survival
COc1ccc(-n2nc(C(=O)Nc3cccc(C(F)(F)F)c3)c3c4ccccc4n(C)c3c2=O)cc1 | inactive: 78%
Cc1nn(CC(=O)NCc2ccccc2Cl)c(=O)c2nn(-c3ccccc3)c(C)c12 | inactive: 124%
Cc1ccccc1NC(=O)CSC1=Nc2ccccc2C2=NC(CCC(=O)NCc3ccccc3)C(=O)N12 (stereo unspecified) | inactive: 89%
Cc1nc(CC(=O)Nc2ccc(N(C)C)cc2)cs1 | active: 45%
CCOc1ccc(-c2nc(SCC(=O)NCCOC)c(-c3ccc(OC)c(OC)c3)[nH]2)cc1 | inactive: 76%
CCc1ccc(-n2nc(C)c3c(C(=O)Nc4cc(OC)cc(OC)c4)cc(C)nc32)cc1 | inactive: 102%
COc1ccc(CNC(=O)Cn2c(SCC(=O)Nc3ccc(C)c(C)c3)nc3ccccc32)cc1 | inactive: 68%
CSc1nc2sc3c(c2c(=O)n1-c1ccc(F)c(Cl)c1)CCN(C(C)=O)C3 | inactive: 71%
Cc1cc(C)cc(NC(=O)CSc2nc(-c3cccc(Cl)c3)nc3c2Cc2c(CO)cnc(C)c2O3)c1 | inactive: 125%
CCOC(=O)NC1(C(F)(F)F)NC(=O)N(c2ccc(C)c(C)c2)C1=O (stereo unspecified) | inactive: 79%
O=C(CSC1=Nc2ccccc2C2=NC(Cc3ccccc3)C(=O)N12)Nc1ccccc1F (stereo unspecified) | inactive: 79%
Cc1cc(C)cc(OCC(=O)Nc2ccc(S(=O)(=O)Nc3onc(C)c3C)cc2)c1 | inactive: 67%
CCC(C(=O)NC1CCCC1)N(Cc1ccc2c(c1)OCO2)C(=O)c1snc(C(N)=O)c1N (stereo unspecified) | inactive: 93%
COc1ccc(S(=O)(=O)NCCc2csc(-c3ccc(F)cc3)n2)cc1 | inactive: 97%
NNC(=O)c1nsnc1-c1ccccc1O | inactive: 73%
CN1C(=O)C(C)(C)c2cc(S(=O)(=O)NCc3ccc(C(=O)Nc4ccc(Cl)cc4)cc3)ccc21 | inactive: 64%
Cc1cccc(NC(=O)N2CCC(CN3CCc4ccccc4C3)CC2)c1C | active: -2%
Cc1ccccc1-c1nnc(SCC(=O)Oc2c(C)cccc2C)o1 | inactive: 99%
Cc1cc(C)cc(N2C(=O)N(CC(=O)c3ccc(Br)cc3)c3ccccc3S2(=O)=O)c1 | inactive: 75%
COc1ccccc1CNC(=O)CN1C(=O)COc2ccc(S(=O)(=O)N3CCCCC3)cc21 | inactive: 60%
O=S(=O)(NCc1cccc(Br)c1)c1ccc(-c2cc(C(F)(F)F)on2)s1 | inactive: 54%
CCN(CC)C(=O)c1sc2c(c1C)c(=O)n(-c1ccc(Cl)c(Cl)c1)c(=O)n2Cc1cc(=O)n2c(C)cccc2n1 | active: 32%

Compound | survival
COC(=O)CN1C(=O)CSc2ccc(S(=O)(=O)N3CCOCC3)cc21 | inactive: 118%
Cc1ccc(N2C(=O)C3C4C=CC(CNC(=O)OCc5ccccc5)(O4)C3C2=O)cc1 (stereo unspecified) | inactive: 95%
COC(=O)c1sccc1S(=O)(=O)N(CC(=O)NCc1ccc(C)cc1)c1ccc(Cl)cc1 | inactive: 87%
COc1ccc(C(=O)Nc2ccc3nc(SCC(=O)N4CCCc5ccccc54)sc3c2)cc1 | inactive: 99%
CCCCn1cc(S(=O)(=O)c2ccc(OC)cc2)c(=O)c2cc(F)c(N3CCCC3)cc21 | inactive: 87%
Cc1ccc(-c2nc(C)c(CCNS(=O)(=O)c3ccccc3F)s2)cc1 | inactive: 76%
COc1ccc(CCNC(=O)CCCn2c(=O)c3ccccc3n(Cc3ccccc3C)c2=O)cc1OC | inactive: 85%
Cc1ccc(-n2ncc(C(=O)NCCN3CCc4ccccc4C3)c2C2CCN(C(=O)OC(C)(C)C)CC2)cc1 | inactive: 83%
Cc1cccc(C)c1OCc1nc2c3cnn(-c4cccc(F)c4)c3ncn2n1 | inactive: 78%
CCOC(=O)c1cc(S(=O)(=O)N2CCN(c3ccc(OC)cc3)CC2)[nH]n1 | inactive: 128%
Cc1ccc(NC(=O)CSc2nncn2N)cc1C | inactive: 108%
COCCN(Cc1cc2cc(C)c(C)cc2nc1Cl)C(C)=O | inactive: 62%
Cc1ccc(C(=O)Nc2c(C(=O)NCc3ccc(Cl)cc3)sc3nc(C)cc(C)c23)cc1 | inactive: 59%
CCC(C)(C)n1nnnc1CN(Cc1ccccc1)Cc1cc2cc(OC)ccc2[nH]c1=O | inactive: 91%
CCOC(=O)c1cccc(NC(=O)CN2C(=O)CC(C)(C)Sc3ccccc32)c1 | inactive: 94%
CCN(C(=O)c1oc2ccc(S(=O)(=O)N3CCCCCC3)cc2c1C)c1ccccc1 | inactive: 124%
O=C1C(=O)N(C2CCN(S(=O)(=O)c3ccc(F)cc3)CC2)CCN1Cc1ccccc1 | inactive: 120%
COc1ccc(Cl)cc1NC(=O)CSc1nccn1Cc1ccco1 | inactive: 92%
CN(CC(=O)Nc1cccc(C(F)(F)F)c1)S(=O)(=O)c1ccc2[nH]c3c(c2c1)CCCC3 | inactive: 94%
CCc1ccc(CN2C(=O)c3ccccc3C2C(=O)NCCc2ccc(OC)c(OC)c2)cc1 (stereo unspecified) | inactive: 75%
